Results as given in PMC3422510 (Developmental cell, 2012).

Molecular target: HA-Sec5 (UniProt O54921 1-924)
Assay: co-IP

Sequence of UniProt O54921 (O54921 whole entry): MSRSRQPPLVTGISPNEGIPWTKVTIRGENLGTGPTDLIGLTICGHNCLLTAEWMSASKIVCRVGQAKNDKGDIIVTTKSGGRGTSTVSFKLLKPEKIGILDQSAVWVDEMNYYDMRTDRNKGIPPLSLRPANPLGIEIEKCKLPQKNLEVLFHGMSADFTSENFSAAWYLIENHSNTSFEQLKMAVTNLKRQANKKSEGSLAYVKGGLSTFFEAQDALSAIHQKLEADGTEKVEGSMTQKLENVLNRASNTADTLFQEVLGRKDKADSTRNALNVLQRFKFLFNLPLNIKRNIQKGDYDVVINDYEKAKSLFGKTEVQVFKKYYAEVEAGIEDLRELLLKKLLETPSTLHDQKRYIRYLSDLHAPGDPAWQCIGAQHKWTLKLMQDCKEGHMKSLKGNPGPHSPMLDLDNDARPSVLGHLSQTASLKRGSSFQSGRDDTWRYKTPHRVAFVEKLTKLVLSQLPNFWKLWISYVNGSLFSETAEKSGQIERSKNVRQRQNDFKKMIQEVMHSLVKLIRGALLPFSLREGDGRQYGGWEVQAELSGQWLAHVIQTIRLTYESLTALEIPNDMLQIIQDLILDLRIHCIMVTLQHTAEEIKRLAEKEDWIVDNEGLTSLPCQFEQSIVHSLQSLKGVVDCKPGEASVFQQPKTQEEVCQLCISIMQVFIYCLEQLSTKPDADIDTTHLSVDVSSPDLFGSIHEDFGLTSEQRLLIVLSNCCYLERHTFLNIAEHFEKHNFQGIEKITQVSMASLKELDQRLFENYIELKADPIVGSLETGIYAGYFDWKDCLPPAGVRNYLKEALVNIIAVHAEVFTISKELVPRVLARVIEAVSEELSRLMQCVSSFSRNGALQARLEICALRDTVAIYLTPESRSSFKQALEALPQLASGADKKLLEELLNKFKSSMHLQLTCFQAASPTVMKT

fold by which RhoA wt interacts more than this mutant [fold] | Binder
10 | GFP-RhoA^Q63L (natural protein) not shown
10 | GFP-RhoA^T19N (natural protein) not shown
